The record followed here is the supplement of paper PMC10441789.

Some of the results follow. Antibody binding of pooled human sera (four to six donors per pool; dilution not stated) to peptides of the Trypanosoma cruzi antigen TSSA on microarrays. Quantile-normalised fluorescence in arbitrary units, mean of duplicate arrays; higher = more binding. No active / inactive call. The uninfected pools are read here as the healthy donors of the same country. The strongest signals lie near the top of the scale (about 60,000).

One experiment concerns pooled sera of uninfected people, Argentina. The experiment is described as follows: antibody binding signal (normalised fluorescence) (arbitrary fluorescence units); higher = stronger serum antibody binding to peptide. Here is the method: (§1)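 Microarray of 15-residue peptides over residues 30-55 of Trypanosoma cruzi TSSAII, each with 1 to 10 substitutions at naturally variable positions, probed with one serum pool per country.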
TDKKTAAGGAPSQPG registered an antibody binding signal of 169.
DKKAATGETPSQPGA came in with an antibody binding signal of 542.
In turn, GTDNKAAAGGTPSPS yielded an antibody binding signal of 109.
Regarding GKDNKTAAGETPSPP, the antibody binding signal was 281.
For the sequence SGTENKPAAGEAPSQ, the antibody binding signal worked out at 559.
The sequence SGTDNKTAAGGTPSP returned an antibody binding signal of 164.
As for PPSGKEKKTAAGGTP, the antibody binding signal was 240.
Sequence SGTEKKTATGETPSQ returned an antibody binding signal of 235.
In the case of TENKTAAGEAPSPSG, the antibody binding signal came to 201.
The sequence KTATGEAPSQPGASS showed an antibody binding signal of 305.
For the sequence PSGKEKKAAAGEAPS, the antibody binding signal was found to be 442.
For SGTENKTATGEAPSQ, the antibody binding signal was determined as 506.
The sequence GTDKKTAAGETPSPP returned an antibody binding signal of 159.
The sequence KDKKAATGGAPSQSG registered an antibody binding signal of 242.
With GKDNKTATGGTPSPP, the antibody binding signal was 191.
On the same count and under the same terms, the same measure for DNKAAAGETPSQSGA: 88.2.
GTEKKPAAGGAPSPP came in with an antibody binding signal of 167.
The sequence ENKTATGGAPSQSGA gave an antibody binding signal of 335.
Sequence PSGKENKPATGGTPS showed an antibody binding signal of 8940.
Take PPSGTENKAATGGTP: the antibody binding signal is 1890.
As for EKKPATGGAPSPSGA, the antibody binding signal turned out to be 451.
PSGTEKKPAAGETPS: the antibody binding signal was determined as 677.
As to KEKKPATGGAPSQPG, the antibody binding signal is 240.
Turning to GKEKKPAAGETPSPS, the antibody binding signal turned out to be 127.
Regarding KDKKAATGETPSQSG, the antibody binding signal amounted to 297.
In turn, GTDNKPAAGGTPSQS showed an antibody binding signal of 229.
Turning to NKPAAGEAPSQPGAS, the antibody binding signal is 567.
KENKTATGGTPSPPG had an antibody binding signal of 219.
PSGTEKKTATGETPS displayed an antibody binding signal of 380.
The sequence GKENKTATGEAPSPP returned an antibody binding signal of 446.
The sequence GKDNKTATGETPSQS returned an antibody binding signal of 343.
For EKKPATGGTPSPSGA, the antibody binding signal turned out to be 413.
Take ENKAAAGGTPSQPGA: the antibody binding signal stood at 377.
GKDKKAAAGETPSQS yielded an antibody binding signal of 119.
GKENKPATGETPSQP displayed an antibody binding signal of 1030.
SGKDKKTAAGETPSQ came in with an antibody binding signal of 143.
The same measure, in the same setting: the same measure for TENKTAAGGTPSQSG: 439; for GKDKKPAAGEAPSQS: 95.3; for GTDKKAATGGTPSQP: 346.

The next experiment deals with pooled sera of uninfected people, Bolivia. The experiment is described as above. Here is the method:
as §1
TDKKTAAGGAPSQPG had an antibody binding signal of 119.
Take DKKAATGETPSQPGA: the antibody binding signal came out at 554.
On the same count and under the same terms, the same measure for GTDNKAAAGGTPSPS: 718; for GKDNKTAAGETPSPP: 335; for SGTENKPAAGEAPSQ: 1230.
In turn, SGTDNKTAAGGTPSP gave an antibody binding signal of 741.
The sequence PPSGKEKKTAAGGTP came in with an antibody binding signal of 433.
On the same count and under the same terms, the same measure for SGTEKKTATGETPSQ: 418.
Sequence TENKTAAGEAPSPSG registered an antibody binding signal of 122.
Same read-out and setting: the same measure for KTATGEAPSQPGASS: 130; for PSGKEKKAAAGEAPS: 284.
SGTENKTATGEAPSQ yielded an antibody binding signal of 281.
The same measure, in the same setting: next, GTDKKTAAGETPSPP: 311; KDKKAATGGAPSQSG: 94.
Same read-out and setting: next, GKDNKTATGGTPSPP: 150; DNKAAAGETPSQSGA: 318; GTEKKPAAGGAPSPP: 1120.
Sequence ENKTATGGAPSQSGA had an antibody binding signal of 182.
PSGKENKPATGGTPS yielded an antibody binding signal of 3750.
Same read-out and setting: the same measure for PPSGTENKAATGGTP: 622; for EKKPATGGAPSPSGA: 1240; for PSGTEKKPAAGETPS: 501.
KEKKPATGGAPSQPG: the antibody binding signal came out at 204.
The sequence GKEKKPAAGETPSPS gave an antibody binding signal of 159.
Still for that read-out and setting: the same measure for KDKKAATGETPSQSG: 106; for GTDNKPAAGGTPSQS: 1070.
With NKPAAGEAPSQPGAS, the antibody binding signal stood at 1050.
Sequence KENKTATGGTPSPPG gave an antibody binding signal of 153.
PSGTEKKTATGETPS had an antibody binding signal of 378.
Sequence GKENKTATGEAPSPP yielded an antibody binding signal of 137.
Same read-out and setting: next, GKDNKTATGETPSQS: 331; EKKPATGGTPSPSGA: 864.
The sequence ENKAAAGGTPSQPGA had an antibody binding signal of 204.
Same read-out and setting: next, GKDKKAAAGETPSQS: 87.3; GKENKPATGETPSQP: 676.
SGKDKKTAAGETPSQ had an antibody binding signal of 122.
Regarding TENKTAAGGTPSQSG, the antibody binding signal came to 239.
With GKDKKPAAGEAPSQS, the antibody binding signal came out at 85.
Sequence GTDKKAATGGTPSQP gave an antibody binding signal of 183.
